Test results published in PubChem BioAssay AID1963576 (National Center for Advancing Translational Sciences (NCATS), 2024).
The whole screen tested about 46,000 compounds, of which about 60 (0.1%) were called active. Not shown: some 3% with an inconclusive outcome. The call rests on the fitted dose curve; in most records, active means well fitted inhibition curve with a large enough effect; inconclusive means small, poorly fitted or top-dose-only effect; inactive means no such curve, though single readings can be large or run the other way. The list shows a part of the results.

assay: Primary qHTS assay for Inhibitors of ovarian cancer metastasis using an organotypic tumor microenvironment (TME) model.; further: nearly all actives have a fitted effect of over 65% in size;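 on activity change, negative = inhibition: plate controls were DMSO wells for no effect and tomatine positive control wells for full effect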; conditions: SKOV3ip1-GFP adhesion/invasion on 3D omental model, fluorescence; series mostly up to 45.8 µM; activity change, negative = inhibition: at the top concentration
Method in brief: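 A 3D layer of primary human omental fibroblasts, mesothelial cells, fibronectin and collagen I, grown 48 hr, received SKOV3ip1-GFP cells in serum-free medium plus compounds at 0.36-46 umol/L. After 2 hr RT and 16 hr 37 C, fixed adherent GFP cells were counted; normalized to DMSO and tomatine.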

outcome, inactive:
COCCn1c(C)cc(O)c(C(c2ccccc2)N2CCN(C)CC2)c1=O (configuration not stated), COc1ccc2c(c1)CCc1c(C(=O)Nc3cc(C)ccc3O)noc1-2, CCc1nn(CC(=O)N2CCCCC2)c(=O)c2cc3sccc3n12, CC(C)OCCCNC(=O)c1ccc(-n2c(-c3ccccc3)cc3c2CCCC3)cc1, O=C(COC(=O)CCCC1=NS(=O)(=O)c2ccccc2N1)Nc1ccc(Br)cc1, O=C(Nc1ccc(F)cc1)[C@H](CSCc1ccccc1)N1Cc2ccccc2C1=O, COc1ccc(-c2nc(C)c(CCNC(=O)Cc3ccc(F)cc3)s2)cc1OC, CCc1ccccc1NC(=O)N1CCN(c2cc(-c3noc(C)n3)ccc2C)CC1, CCOC(=O)c1cccc(NC(=O)C(CC(C)C)N2Cc3ccccc3C2=O)c1 (configuration not stated), O=C(CSc1nccn1-c1ccccc1)Nc1nc2ccccc2s1, CCOc1ccc(CCNC(=O)CCCn2nc(C)c3sc4ccccc4c3c2=O)cc1OCC, CCCc1cc(=O)[nH]c(Nc2ccc(C(=O)O)cc2)n1, COc1cc(-c2noc(-c3ccc(NCc4cccnc4)c([N+](=O)[O-])c3)n2)cc(OC)c1OC, COc1cccc(NC(=O)CN(C)S(=O)(=O)c2ccc3nc(C)sc3c2)c1, CCOc1ccccc1NC(=O)c1c(NC(=O)c2ccccc2C)sc2c1CCC(C)C2 (configuration not stated)

Activity change, negative = inhibition, inactive:
COc1ccccc1NC(=O)Cc1c(C(=O)O)[nH]c2ccc(Cl)cc12 -7.09%, COc1cc(Cn2c(=O)sc3ccccc32)ccc1OC(C)C -0.374%, Cc1ccc(-c2nc3cc(C(C)C)ccc3o2)cc1NC(=O)c1cccs1 12.1%, CCCCOc1ccc(CNC(=O)C2CCN(c3nnc(-n4cccc4CNc4ccc(C)cc4)s3)CC2)cc1 -1.05%, COc1cc(Br)c(/C=C(\C#N)c2nc3ccccc3[nH]2)cc1OC -8.05%, COc1cccc(NC(=O)CCNS(=O)(=O)c2ccc(Br)s2)c1 -1.25%, COc1ccc(CNC(=O)Cc2csc3ccccc23)cc1OC -0.244%, Cc1ccc(C)c(N2CCN(CCCNC(=O)Nc3cc(Cl)ccc3C)CC2)c1 -0.328%, Cc1ccc(N2C(=O)CSC23C(=O)N(CC(=O)NC2CCCCC2)c2ccccc23)cc1 (configuration not stated) -26.4%, COc1cccc(C(=O)NCC(c2ccc(N(C)C)cc2)N2CCCC2)c1OC (configuration not stated) 2.21%, CC(C)CN1CCc2nc(N3CCN(c4ncccn4)CC3)ncc2C1 2.68%, Cc1cn2c(=O)c(S(=O)(=O)NCCc3ccccc3)c(C)nc2s1 4.97%, COc1ccc2nc(NC(=O)c3nc(SCc4ccc(F)cc4)ncc3Cl)sc2c1 -6.9%, CCOc1ccc(-c2nnc(SCC(=O)NCCC(C)C)nc2-c2ccc(OCC)c(OC)c2)cc1OC -11.7%, CCc1ccccc1NC(=O)C1CCC(CNS(=O)(=O)c2ccc3c(c2)CC(C)N3C(C)=O)CC1 (configuration not stated) -9.6%, Cc1ccc(S(=O)(=O)c2nnn3c2nc(N2CCN(c4ccc(F)cc4)CC2)c2cc(Cl)ccc23)cc1C 7.13%, Cc1ccc(N2CCN(C(=O)Cc3c(C(=O)O)c(C)cn3C)CC2)c(C)c1 3.07%, CCOc1ccc(OCC)c(NC(=O)C2CCN(S(=O)(=O)c3ccc(Br)s3)CC2)c1 -5.46%, COc1ccc2nc(SCC(=O)c3c(C)[nH]c4ccccc34)nc(C)c2c1 18.5%, OCc1ccc(-c2nn(Cc3ccccc3)c3ccccc23)o1 1.35%, NC(=O)c1cccnc1 -23.8%, COc1cccc(-n2c(=O)c3c(C)c(C(=O)N(C)C)sc3n(CC(=O)NCCc3ccc(OC)c(OC)c3)c2=O)c1 11.1%, Cc1cccc(NC(=O)N2CCc3c(sc4c3CCCC4)C2c2ccc(F)cc2)c1 (configuration not stated) 2.52%, Cc1nc2nc(NCc3cccc(Br)c3)[nH]n2c(=O)c1Cc1ccccc1 2.06%, O=C(Nc1cccc(Cl)c1Cl)c1ccc2c(c1)N(Cc1cccc(Cl)c1)C(=O)c1ccccc1S2(=O)=O 2.33%, COc1ccc2oc(=O)c(C(=O)NCCc3c(C)[nH]c4c(Cl)cccc34)cc2c1 4.8%, COc1cc2ccccc2cc1C(=O)Nc1cccc(-c2nc3cc(C)c(C)cc3o2)c1C 14.6%, CCC(=O)N1CCc2cc(Br)cc(S(=O)(=O)N3CCCC(C(=O)Nc4ccc(OC)c(Cl)c4)C3)c21 (configuration not stated) 7.42%, Cn1nnnc1SCCNCc1ccc(F)cc1 -13.6%, Cc1ccc(CN(C(=O)COc2cccc([N+](=O)[O-])c2)c2ccccn2)o1 6.37%, O=S(=O)(Nc1ccc(Cl)cc1)c1ccc(NS(=O)(=O)c2ccc3c(c2)OCCO3)cc1 33.6%, N#C/C(=C/c1cn(Cc2ccc(F)cc2)c2ccccc12)C(=O)Nc1cccc(Cl)c1 -1.73%, CCn1c2ccccc2c2nnc(SCCN3CCCCC3)nc21 1.38%, COc1ccccc1Nc1nn2c(=O)c3ccc(C(=O)NCCCOC(C)C)cc3nc2s1 -5.62%, COC(=O)CC1c2cc(OC)c(OC)cc2CCN1C(=O)Nc1ccc(C)cc1Cl (configuration not stated) 12.8%, CCOc1ccc(CNC(=O)CCC(=O)N2CC(C)Sc3ccccc32)cc1 (configuration not stated) 22.9%, COc1ccc(OC)c(CNC(=O)CCCn2ccc3cc(S(=O)(=O)N4CCCC4)ccc32)c1 -26.4%, Cc1ccc(NC(=O)c2cnc(SCC(=O)N3CCOCC3)n(C)c2=O)cc1 -1.33%, CCC1CN(C(=O)N2CCC(C(=O)NCCN(C)C)CC2)c2ccccc2O1 (configuration not stated) -3.89%, CCOc1ccc(OCC)c(NC(=O)Cn2ncc3c4ccccc4n(Cc4ccccc4)c3c2=O)c1 -1.98%, CCc1ccc(CNC(=O)c2cccc(-n3cnc4cccnc43)c2C)cc1 17.8%, CN(c1ccc(Cl)cc1)S(=O)(=O)c1nnc(NC(=O)C2CCCCC2)s1 7.16%, COc1ccc(C)cc1N(C)C(=O)c1c(C)oc2ncnc(N3CCOCC3)c12 5.01%, COC(=O)c1c(C)sc(-c2c(-c3ccc4c(c3)OCCO4)[nH]c3c2c(=O)n(C)c(=O)n3C)c1O -3.18%, CCNC(=O)c1cnc2sc(N3CCCCCC3)nn2c1=O 17.7%, COc1cc(C(=O)Oc2c(Sc3ccc(C)cc3)c(C)nn2-c2ccccc2)cc(OC)c1OC 1.88%, Cc1ccn2c(Nc3ccc4c(c3)OCCO4)c(-c3ccc(Cl)s3)nc2c1 -11.9%
